Test results published in the supplement of paper PMC8728848.
This is one part of the list.

How the values were obtained:
Experiment in all cases: glycan array binding signal (z-score within array); higher = stronger binding
Settings in all cases: glycan notation: IUPAC condensed, linker removed
[1] = target: GlcNAc(b1-4)GlcNAc(b1-4)GlcNAc(b1-4)GlcNAc(b1-4)GlcNAc(b1-4)GlcNAc
Method in brief: (§1)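 Glycan array data were curated from 3228 arrays in the Consortium for Functional Glycomics database and kept only where the protein sequence was available. Glycan names were converted to IUPAC-condensed notation, and columns mapping to the same glycan were averaged. The binding signal is a within-array Z-score, averaged across arrays of the same protein sequence at different concentrations or buffers and across linkers. Negative Z-scores can be read as non-binding.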

[2] = target: GlcNAc(b1-4)[GlcNAc(b1-6)]GalNAc
Method in brief: as §1

[3] = target: GlcNAc(b1-6)Gal(b1-4)GlcNAc
Method in brief: as §1

GlcNAc(b1-6)GalNAc = target: GlcNAc(b1-6)GalNAc
Method in brief: as §1

GlcNAc3Prop(b1-4)GlcNAc = target: GlcNAc3Prop(b1-4)GlcNAc
Method in brief: as §1

Kdn(a2-3)Gal(b1-3)GlcNAc = target: Kdn(a2-3)Gal(b1-3)GlcNAc
Method in brief: as §1

Kdn(a2-3)Gal(b1-4)GlcNAc = target: Kdn(a2-3)Gal(b1-4)GlcNAc
Method in brief: as §1

[4] = target: Man(a1-2)Man(a1-2)Man(a1-3)Man
Method in brief: as §1

[5] = target: Man(a1-2)Man(a1-2)Man(a1-6)[Man(a1-3)]Man
Method in brief: as §1

Man(a1-2)Man(a1-3)Man = target: Man(a1-2)Man(a1-3)Man
Method in brief: as §1

[6] = target: Man(a1-2)Man(a1-3)[Man(a1-2)Man(a1-6)]Man
Method in brief: as §1

[7] = target: Man(a1-2)Man(a1-3)[Man(a1-2)Man(a1-6)]Man(a1-6)[Man(a1-2)Man(a1-2)Man(a1-3)]Man
Method in brief: as §1

[8] = target: Man(a1-2)Man(a1-3)[Man(a1-2)Man(a1-6)]Man(a1-6)[Man(a1-2)Man(a1-2)Man(a1-3)]Man(b1-4)GlcNAc(b1-4)GlcNAc
Method in brief: as §1

[9] = target: Man(a1-2)Man(a1-3)[Man(a1-6)]Man(a1-6)[Man(a1-2)Man(a1-3)]Man(b1-4)GlcNAc(b1-4)GlcNAc
Method in brief: as §1

[10] = target: Man(a1-2)Man(a1-6)[Man(a1-3)]Man(a1-6)[Man(a1-2)Man(a1-2)Man(a1-3)]Man
Method in brief: as §1

[11] = target: Man(a1-2)Man(a1-6)[Man(a1-3)]Man(a1-6)[Man(a1-2)Man(a1-2)Man(a1-3)]Man(b1-4)GlcNAc(b1-4)GlcNAc
Method in brief: as §1

Man(a1-3)[Man(a1-6)]Man = target: Man(a1-3)[Man(a1-6)]Man
Method in brief: as §1

[12] = target: Man(a1-3)[Man(a1-6)]Man(a1-6)[Man(a1-2)Man(a1-3)]Man(b1-4)GlcNAc(b1-4)GlcNAc
Method in brief: as §1

[13] = target: Man(a1-3)[Man(a1-6)]Man(a1-6)[Man(a1-3)]Man
Method in brief: as §1

[14] = target: Man(a1-3)[Man(a1-6)]Man(a1-6)[Man(a1-3)]Man(b1-4)GlcNAc(b1-4)GlcNAc
Method in brief: as §1

[15] = target: Man(a1-3)[Man(a1-6)]Man(b1-4)GlcNAc(b1-4)GlcNAc
Method in brief: as §1

Man(a1-6)Man = target: Man(a1-6)Man
Method in brief: as §1

Man(b1-4)GlcNAc = target: Man(b1-4)GlcNAc
Method in brief: as §1

Neu5Ac(a2-3)Gal = target: Neu5Ac(a2-3)Gal
Method in brief: as §1

[16] = target: Neu5Ac(a2-3)Gal(b1-3)GalNAc
Method in brief: as §1

[17] = target: Neu5Ac(a2-3)Gal(b1-3)GalNAc(b1-3)Gal(a1-4)Gal(b1-4)Glc
Method in brief: as §1

[18] = target: Neu5Ac(a2-3)Gal(b1-3)GalNAc(b1-3)Gal(b1-4)GlcNAc
Method in brief: as §1

[19] = target: Neu5Ac(a2-3)Gal(b1-3)GalNAc(b1-4)[Neu5Ac(a2-3)]Gal(b1-4)Glc
Method in brief: as §1

[20] = target: Neu5Ac(a2-3)Gal(b1-3)GalNAc6S
Method in brief: as §1

[21] = target: Neu5Ac(a2-3)Gal(b1-3)GlcNAc
Method in brief: as §1

[22] = target: Neu5Ac(a2-3)Gal(b1-3)GlcNAc(b1-3)Gal(b1-3)GlcNAc
Method in brief: as §1

[23] = target: Neu5Ac(a2-3)Gal(b1-3)GlcNAc6S
Method in brief: as §1

[24] = target: Neu5Ac(a2-3)Gal(b1-3)[Fuc(a1-4)]GlcNAc
Method in brief: as §1

[25] = target: Neu5Ac(a2-3)Gal(b1-3)[Fuc(a1-4)]GlcNAc(b1-3)Gal(b1-4)[Fuc(a1-3)]GlcNAc
Method in brief: as §1

[26] = target: Neu5Ac(a2-3)Gal(b1-3)[Neu5Ac(a2-3)Gal(b1-4)]GlcNAc
Method in brief: as §1

[27] = target: Neu5Ac(a2-3)Gal(b1-3)[Neu5Ac(a2-6)]GalNAc
Method in brief: as §1

Neu5Ac(a2-3)Gal(b1-4)Glc = target: Neu5Ac(a2-3)Gal(b1-4)Glc
Method in brief: as §1

[28] = target: Neu5Ac(a2-3)Gal(b1-4)GlcNAc
Method in brief: as §1

[29] = target: Neu5Ac(a2-3)Gal(b1-4)GlcNAc(b1-2)Man(a1-3)[GlcNAc(b1-2)Man(b1-4)GlcNAc(b1-2)Man(a1-6)]Man(b1-4)GlcNAc(b1-4)GlcNAc
Method in brief: as §1

[30] = target: Neu5Ac(a2-3)Gal(b1-4)GlcNAc(b1-2)Man(a1-3)[Neu5Ac(a2-3)Gal(b1-4)GlcNAc(b1-2)Man(a1-6)]Man(b1-4)GlcNAc(b1-4)GlcNAc
Method in brief: as §1

[31] = target: Neu5Ac(a2-3)Gal(b1-4)GlcNAc(b1-2)Man(a1-3)[Neu5Ac(a2-6)Gal(b1-4)GlcNAc(b1-2)Man(a1-6)]Man(b1-4)GlcNAc(b1-4)GlcNAc
Method in brief: as §1

[32] = target: Neu5Ac(a2-3)Gal(b1-4)GlcNAc(b1-3)Gal(b1-3)GlcNAc
Method in brief: as §1

[33] = target: Neu5Ac(a2-3)Gal(b1-4)GlcNAc(b1-3)Gal(b1-4)GlcNAc
Method in brief: as §1

[34] = target: Neu5Ac(a2-3)Gal(b1-4)GlcNAc(b1-3)Gal(b1-4)GlcNAc(b1-3)Gal(b1-4)GlcNAc
Method in brief: as §1

[35] = target: Neu5Ac(a2-3)Gal(b1-4)GlcNAc(b1-3)Gal(b1-4)[Fuc(a1-3)]GlcNAc
Method in brief: as §1

[36] = target: Neu5Ac(a2-3)Gal(b1-4)GlcNAc(b1-6)[Gal(b1-3)]GalNAc
Method in brief: as §1

[37] = target: Neu5Ac(a2-3)Gal(b1-4)GlcNAc(b1-6)[Neu5Ac(a2-3)Gal(b1-3)]GalNAc
Method in brief: as §1

[38] = target: Neu5Ac(a2-3)Gal(b1-4)GlcNAc6S
Method in brief: as §1

[39] = target: Neu5Ac(a2-3)Gal(b1-4)[Fuc(a1-3)]GlcNAc
Method in brief: as §1

[40] = target: Neu5Ac(a2-3)Gal(b1-4)[Fuc(a1-3)]GlcNAc(b1-3)Gal
Method in brief: as §1

[41] = target: Neu5Ac(a2-3)Gal(b1-4)[Fuc(a1-3)]GlcNAc(b1-3)Gal(b1-4)GlcNAc
Method in brief: as §1

[42] = target: Neu5Ac(a2-3)Gal(b1-4)[Fuc(a1-3)]GlcNAc(b1-3)Gal(b1-4)[Fuc(a1-3)]GlcNAc(b1-3)Gal(b1-4)[Fuc(a1-3)]GlcNAc
Method in brief: as §1

[43] = target: Neu5Ac(a2-3)Gal(b1-4)[Fuc(a1-3)]GlcNAc(b1-6)[Gal(b1-3)]GalNAc
Method in brief: as §1

[44] = target: Neu5Ac(a2-3)Gal(b1-4)[Fuc(a1-3)]GlcNAc6S
Method in brief: as §1

[45] = target: Neu5Ac(a2-3)Gal6S(b1-4)GlcNAc
Method in brief: as §1

[46] = target: Neu5Ac(a2-3)Gal6S(b1-4)[Fuc(a1-3)]GlcNAc
Method in brief: as §1

Neu5Ac(a2-3)GalNAc = target: Neu5Ac(a2-3)GalNAc
Method in brief: as §1

[47] = target: Neu5Ac(a2-3)GalNAc(b1-4)GlcNAc
Method in brief: as §1

[48] = target: Neu5Ac(a2-3)[GalNAc(b1-4)]Gal(b1-4)Glc
Method in brief: as §1

[49] = target: Neu5Ac(a2-3)[GalNAc(b1-4)]Gal(b1-4)GlcNAc
Method in brief: as §1

B1: P-Selectin (Mus musculus), Q01102 (protein)
chain: MAGCPKGSWTPRLRSVILGGAQLIWFSALISELVNQKEVAAWTYNYSTKAYSWNNSRVFCRRHFTDLVAIQNKNEIAHLNDVIPFFNSYYWIGIRKINNKWTWVGTNKTLTEEAENWADNEPNNKKNNQDCVEIYIKSNSAPGKWNDEPCFKRKRALCYTASCQDMSCSNQGECIETIGSYTCSCYPGFYGPECEYVKECGKVNIPQHVLMNCSHPLGEFSFNSQCTFSCAEGYELDGPGELQCLASGIWTNNPPKCDAVQCQSLEAPPHGTMACMHPIAAFAYDSSCKFECQPGYRARGSNTLHCTGSGQWSEPLPTCEAIACEPPEIPIHGSMDCVPSTGTFGYNSSCTFLCAEGFVLKGNDAIQCADSGQWTAPAPFCEALQCPEFPVPSKAQVNCSDPFGTLTYQSVCSFSCDEGSLLVGASVIRCLATGHWNGAPPECQAVSCAPMLSPENGSMTCVQPLGNSTYKSTCQFMCDEGFYLSGPERLDCSPSGHWTGTPPTCEAIKCPGIFAPEQGNLDCSHVHGEFGVGSICHFSCNEDFELLGSENVECTVSGRWSAPPPTCKGITSLPAPAVRCPALTTPGQGTMSCQHHLGSFGPNTTCYFGCKTGFTLRGANSLRCRASGQWTAVTPMCRAVKCSELHMDTAVAMNCSNPWGNFSYGSTCTFQCPEGQSLNGSVRATCREDGHWSDAMPTCQAGTLTIQEALTYLGGAVASTTGLAVGGTLLALLRKRLRKKDDGKCPLNPHSHLGTYGVFTNAAYDPTP
glycan array binding signal (z-score) [1]: 0.215
glycan array binding signal (z-score) [2]: -0.478
glycan array binding signal (z-score) [3]: -0.39
glycan array binding signal (z-score) (GlcNAc(b1-6)GalNAc): -0.745
glycan array binding signal (z-score) (GlcNAc3Prop(b1-4)GlcNAc): -0.279
glycan array binding signal (z-score) (Kdn(a2-3)Gal(b1-3)GlcNAc): -0.37
glycan array binding signal (z-score) (Kdn(a2-3)Gal(b1-4)GlcNAc): -0.609
glycan array binding signal (z-score) [4]: -0.594
glycan array binding signal (z-score) [5]: -0.423
glycan array binding signal (z-score) (Man(a1-2)Man(a1-3)Man): -0.56
glycan array binding signal (z-score) [6]: -0.55
glycan array binding signal (z-score) [7]: -0.332
glycan array binding signal (z-score) [8]: -0.301
glycan array binding signal (z-score) [9]: -0.406
glycan array binding signal (z-score) [10]: -0.282
glycan array binding signal (z-score) [11]: -0.287
glycan array binding signal (z-score) (Man(a1-3)[Man(a1-6)]Man): -0.681
glycan array binding signal (z-score) [12]: -0.359
glycan array binding signal (z-score) [13]: -0.346
glycan array binding signal (z-score) [14]: -0.19
glycan array binding signal (z-score) [15]: -0.317
glycan array binding signal (z-score) (Man(a1-6)Man): -0.277
glycan array binding signal (z-score) (Man(b1-4)GlcNAc): -0.388
glycan array binding signal (z-score) (Neu5Ac(a2-3)Gal): -0.087
glycan array binding signal (z-score) [16]: -0.013
glycan array binding signal (z-score) [17]: -0.299
glycan array binding signal (z-score) [18]: -0.354
glycan array binding signal (z-score) [19]: -0.253
glycan array binding signal (z-score) [20]: 0.903
glycan array binding signal (z-score) [21]: -0.3
glycan array binding signal (z-score) [22]: -0.268
glycan array binding signal (z-score) [23]: 0.547
glycan array binding signal (z-score) [24]: 2.9
glycan array binding signal (z-score) [25]: 3.15
glycan array binding signal (z-score) [26]: -0.297
glycan array binding signal (z-score) [27]: -0.237
glycan array binding signal (z-score) (Neu5Ac(a2-3)Gal(b1-4)Glc): 0.472
glycan array binding signal (z-score) [28]: -0.414
glycan array binding signal (z-score) [29]: -0.142
glycan array binding signal (z-score) [30]: -0.154
glycan array binding signal (z-score) [31]: 0.209
glycan array binding signal (z-score) [32]: -0.276
glycan array binding signal (z-score) [33]: 0.111
glycan array binding signal (z-score) [34]: -0.574
glycan array binding signal (z-score) [35]: -0.342
glycan array binding signal (z-score) [36]: -0.245
glycan array binding signal (z-score) [37]: -0.169
glycan array binding signal (z-score) [38]: 0.918
glycan array binding signal (z-score) [39]: 3.21
glycan array binding signal (z-score) [40]: 2.4
glycan array binding signal (z-score) [41]: 1.85
glycan array binding signal (z-score) [42]: 0.401
glycan array binding signal (z-score) [43]: 1.67
glycan array binding signal (z-score) [44]: 3.56
glycan array binding signal (z-score) [45]: -0.056
glycan array binding signal (z-score) [46]: 0.042
glycan array binding signal (z-score) (Neu5Ac(a2-3)GalNAc): -0.381
glycan array binding signal (z-score) [47]: -0.467
glycan array binding signal (z-score) [48]: -0.331
glycan array binding signal (z-score) [49]: -0.149
